Measured values as given in the supplement of paper PMC12067093, “Discovery and optimisation of a covalent ligand for TRIM25 and its application to targeted protein ubiquitination” (Chemical Science, 2025).
Targets with the largest changes are over-represented here; the source holds about 21,000 in all.

Compound: Cc1cc(ccc1-c1ccccc1)C(=O)N1CCCN(CC1)C(=O)CCl [compound 10]
Experiment: probe-labelled cysteine peptide fold change vs DMSO (competition) (log2 fold change); higher = less target engagement (more negative = stronger competition)
Conditions: THP-1, incubation time: 4 h
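Note: competitive profiling in live THP-1 cells: cysteine peptides tagged with an iodoacetamide desthiobiotin (IA-DTB) probe, intensity after compound treatment relative to DMSO-treated cells.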

Row | Target | probe-labelled cysteine peptide fold change (10 µM) | probe-labelled cysteine peptide fold change (50 µM)
1 | HTATIP2_Q9BUP3_172_YSVFRPGVLLCDR (UniProt Q9BUP3) | -0.197 | -0.113
2 | IDUA_P35475_241_HCHDGTNFFTGEAGVR (UniProt P35475) | 0.242 | -0.158
3 | KLHDC4_Q8TBB5_373_EEPEGGSRPACGGAGTQGPVQLVK (UniProt Q8TBB5) | -0.0404 | -0.104
4 | KBTBD11_O94819_257_DAAYCFMSDHYLEVLR (UniProt O94819) | -0.0308 | -0.131
5 | KANSL3_Q9P2N6_103_SVMNECER (UniProt Q9P2N6) | -0.184 | 0.0606
6 | IPO4_Q8TEX9_708_LLECPHLNVR (UniProt Q8TEX9) | -0.159 | -1.14
7 | IPO5_O00410_110_KVCDIAAELAR (UniProt O00410) | 0.0489 | -0.0971
8 | KDM2A_Q9Y2K7_582_ACVQGECGVCHYCR (UniProt Q9Y2K7) | 0.154 | 0.106
9 | HSPG2_P98160_3043_CLIHDGAAPISLEWK (UniProt P98160) | -0.0778 | -0.0952
10 | LAMC1_P11047_367_STGHGGHCTNCQDNTDGAHCER (UniProt P11047) | 0.875 | 0.519
11 | KNTC1_P50748_2198_HCGKPVPPDTAPCEILK (UniProt P50748) | -0.336 | -0.836
12 | IGFBP2_P18065_227_TPCQQELDQVLER (UniProt P18065) | -0.19 | -0.277
13 | HPS1_Q92902_180_LIHPQLCELCIEALER (UniProt Q92902) | 0.00119 | -0.104
14 | LASP1_Q14847_5_MNPNCAR (UniProt Q14847) | 0.0494 | 0.246
15 | KIF4A_O95239_977_EVCEQNQQLLR (UniProt O95239) | 0.177 | 0.268
16 | HSPA2_P54652_606_VCNPIISK (UniProt P54652) | 0.0869 | -0.0291
17 | ITGB2_P05107_582_TTEGCLNPR (UniProt P05107) | 0.0502 | -0.0473
18 | KDM3B_Q7LBC6_72_AMSGAVPQDLAIFVEFDGCNWK (UniProt Q7LBC6) | 0.0802 | 0.334
19 | ITGB2_P05107_590_VECSGR (UniProt P05107) | 0.585 | 0.264
20 | ITPRID2_P28290_448_EPCAPLTIPSIR (UniProt P28290) | -0.245 | -0.0121

Row | Target | probe-labelled cysteine peptide fold change (10 µM) | probe-labelled cysteine peptide fold change (50 µM)
21 | INTS13_Q9NVM9_120_ADPECCSILHGLVAAVETLCK (UniProt Q9NVM9) | -0.109 | -0.319
22 | KIF5B_P33176_65_VFQSSTSQEQVYNDCAK (UniProt P33176) | -0.0182 | 0.0429
23 | HSPA4_P34932_245_KFDEVLVNHFCEEFGKK (UniProt P34932) | -0.138 | -0.572
24 | LARS_Q9P2J5_1053_IREDCCPGKPLNVFR (UniProt Q9P2J5) | -0.201 | -0.404
25 | HNRNPLL_Q8WVV9_505_TLSGLLEWECK (UniProt Q8WVV9) | -0.0676 | 0.0901
26 | ITGB2_P05107_590_RVECSGR (UniProt P05107) | 0.176 | 0.172
27 | INTS14_Q96SY0_193_LIDLNNGEGQIFTIDGPLCLK (UniProt Q96SY0) | 0.0903 | 0.0906
28 | LAMTOR2_Q9Y2Q5_76_FILMDCMEGR (UniProt Q9Y2Q5) | -0.0538 | 0.143
29 | IMPA2_O14732_90+107_CVLTHSPTWIIDPIDGTCNFVHR (UniProt O14732) | -0.0214 | -0.184
30 | KIF2A_O00139_309_GMATCFAYGQTGSGK (UniProt O00139) | 0.0819 | -0.0128
31 | HNRNPF_P52597_34_GLPWSCSVEDVQNFLSDCTIHDGAAGVHFIYTR (UniProt P52597) | 0.154 | 0.3
32 | ITGB2_P05107_481_NCECQTQGR (UniProt P05107) | -0.3 | 1.18
33 | INTS3_Q68E01_740_LLCHLTPSIYTEFPDETLR (UniProt Q68E01) | 0.306 | 0.402
34 | JUND_P17535_336_VLSHVNSGCQLLPQHQVPAY (UniProt P17535) | 0.151 | 0.00846
35 | IGF2R_P11717_1270_LSSDVCPTSDK (UniProt P11717) | -0.189 | -0.168
36 | HNRNPK_P61978_145_GSDFDCELR (UniProt P61978) | -0.0741 | 0.0912
37 | ILF2_Q12905_291_CLQILAAGLFLPGSVGITDPCESGNFR (UniProt Q12905) | 0.343 | -0.076
38 | HNRNPL_P14866_472_QPAIMPGQSYGLEDGSCSYK (UniProt P14866) | -0.158 | -0.273
39 | KNL1_Q8NG31_2338_QIYQDLFQDCHFYH (UniProt Q8NG31) | 0.114 | -0.335
40 | KIF2C_Q99661_154_QFSVPPAPTRPSCPAVAEIPLR (UniProt Q99661) | -0.256 | -0.0382
